The whole screen tested about 310,000 compounds, of which about 2,200 (0.71%) showed an effect of 50% or more. Effects have a minus sign here. The list shows a part of the results.
The compounds below were run against human ether-à-go-go-related gene (hERG) potassium channel (human, UniProt Q12809) (assay: primary screen, population patch clamp on CHO cells stably expressing hERG).
Chain of human ether-à-go-go-related gene (hERG) potassium channel (Q12809 whole entry, looked up): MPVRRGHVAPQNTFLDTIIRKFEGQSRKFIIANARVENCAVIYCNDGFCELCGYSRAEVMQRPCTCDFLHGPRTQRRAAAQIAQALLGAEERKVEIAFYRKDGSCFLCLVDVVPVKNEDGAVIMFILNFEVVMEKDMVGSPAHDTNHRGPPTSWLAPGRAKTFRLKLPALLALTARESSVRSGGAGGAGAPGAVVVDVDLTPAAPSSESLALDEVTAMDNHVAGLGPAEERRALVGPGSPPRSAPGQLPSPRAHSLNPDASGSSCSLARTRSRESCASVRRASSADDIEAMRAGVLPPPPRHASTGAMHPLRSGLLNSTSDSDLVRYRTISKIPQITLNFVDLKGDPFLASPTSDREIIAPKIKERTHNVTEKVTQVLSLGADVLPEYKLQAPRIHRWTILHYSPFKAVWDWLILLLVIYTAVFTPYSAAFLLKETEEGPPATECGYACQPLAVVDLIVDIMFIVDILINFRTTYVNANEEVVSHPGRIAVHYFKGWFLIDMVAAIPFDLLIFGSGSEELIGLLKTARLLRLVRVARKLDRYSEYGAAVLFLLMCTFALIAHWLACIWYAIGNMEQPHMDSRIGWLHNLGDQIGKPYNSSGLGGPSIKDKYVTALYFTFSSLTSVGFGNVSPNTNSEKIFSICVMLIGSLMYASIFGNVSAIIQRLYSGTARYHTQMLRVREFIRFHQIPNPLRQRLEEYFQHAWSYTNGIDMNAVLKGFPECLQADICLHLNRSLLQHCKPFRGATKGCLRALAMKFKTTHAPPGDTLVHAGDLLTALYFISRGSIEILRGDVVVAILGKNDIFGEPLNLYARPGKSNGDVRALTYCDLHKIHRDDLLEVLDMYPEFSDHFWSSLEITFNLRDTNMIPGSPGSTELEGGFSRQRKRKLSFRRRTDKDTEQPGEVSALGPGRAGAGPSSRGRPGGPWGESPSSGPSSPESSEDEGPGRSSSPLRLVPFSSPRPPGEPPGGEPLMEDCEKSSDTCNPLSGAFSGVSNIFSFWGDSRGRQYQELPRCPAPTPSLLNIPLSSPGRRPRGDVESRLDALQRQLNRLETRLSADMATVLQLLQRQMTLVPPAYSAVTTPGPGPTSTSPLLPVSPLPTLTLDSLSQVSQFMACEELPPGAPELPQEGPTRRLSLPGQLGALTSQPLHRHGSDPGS

In order of falling “hERG current change (%, negative = inhibition) at 1uM” value:
1. COCC(=O)N1CCC(Oc2ccc(C(=O)NCc3csc(C(C)C)n3)cc2)CC1  29.3%
2. O=C(CN1CCN(c2cccc(Cl)n2)CC1)N1CC(O)CO1 (stereo not drawn)  18.6%
3. O=C1C=C(O)c2cccc3cccc1c23  17.9%
4. COc1ccc(N/C(N)=N/c2nc(CSc3nnc(C)s3)cc(=O)[nH]2)cc1  16.7%
5. Fc1cccc(Cl)c1Cc1noc(/C=C/c2ccccc2)n1  16.2%
6. COc1ccc(C(C)=O)cc1CN(C)C.Cl  16.2%
7. COc1ccccc1-c1ccc(=O)n(CC(=O)NCc2cccs2)n1  15.8%
8. CN1CCN(C(=O)Cn2c(C(F)(F)F)nc3ccccc32)CC1  15.2%
9. Cc1ccccc1-c1nc(Cc2ccccc2)no1  15.1%
10. COc1ccc(-c2nsc(SCC(=O)Nc3ccc4c(c3)OCO4)n2)cc1  15%
11. Cc1nc(-c2ccc(S(=O)(=O)N3CCN(c4cccc(C)c4C)CC3)cc2)co1  14.6%
12. COc1ccc(S(=O)(=O)NC(C)C(=O)N2CCCC2)cc1Cl (stereo not drawn)  14.4%
13. O=C(CSc1n[nH]c(-c2ccco2)n1)N1c2ccccc2Sc2ccccc21  14.3%
14. Cc1ccccc1N1C(=O)C(Cc2ccc(F)cc2)S/C1=C(\C#N)C(N)=O (stereo not drawn)  14.1%
15. CCc1ccccc1NC(=O)N1CCc2ccccc2C1  14.1%
16. COc1ccc(C#Cc2c(C=O)n(C)c3ccccc23)cc1  13.5%
17. COc1cccc(/C(O)=C2/C(=O)C(=O)N(CCN(C)C)C2c2ccc(Br)cc2)c1 (stereo not drawn)  13.3%
18. Cc1ccc2c([N+](=O)[O-])cccc2n1  13%
19. O=C(O)CCCC(=O)NNc1ncnc2ccccc12  12.7%
20. CCc1ccc(C(=O)C(C)OC(=O)Cn2cnc3c2c(=O)n(C)c(=O)n3C)cc1 (stereo not drawn)  12.3%
21. O=C(C1CC1)N1CCc2cc(S(=O)(=O)NCCC3=CCCCC3)ccc21  12.3%
22. CCc1ccc(NC(=S)N(Cc2ccc(Cl)cc2)Cc2ccc(C(=O)O)cc2)cc1  12.2%
23. CCOC(=O)C(C(=O)NCCCN1CCOCC1)C1CCCCC1 (stereo not drawn)  12.2%
24. COC(=O)c1sccc1NC(=S)N1CCCCC1  11.8%
25. CCc1nc2ccc(C(=O)N3CCN(c4ccccc4)CC3)cc2nc1CC  11.7%
26. Brc1cc2c(cc1CSc1ncccn1)OCO2  11.7%
27. Cc1ccc(NC(=O)NC2CCCCCCC2)cc1C  11.5%
28. Cc1cccc(NC(=O)OC2CN3CCC2CC3)c1 (stereo not drawn)  11.5%
29. Cc1ccc(C)c(OCC(=O)Nc2ccc(S(=O)(=O)Nc3ccccn3)cc2)c1  11.5%
30. Cc1ccccc1NC(=O)CN1C(=O)S/C(=C\c2cccn2-c2cccc(C(=O)O)c2)C1=O  10.7%
31. Cn1ncc(Br)c1N1C(=O)CCC1=O  10.6%
32. CC(C)n1c(CCC(=O)O)ccc1-c1ccccc1  10.3%
33. O=C(Nc1ccccc1C(=O)NCc1ccccc1)c1ccccc1Br  9.82%
34. COc1cc(C(=O)Nc2cc(C(F)(F)F)ccc2N2CCOCC2)ccc1OCC(=O)N1CCOCC1  9.82%
35. O=C(Nc1ccc(S(=O)(=O)N2CCCCC2)cc1)C1CCN(C(=O)c2ccco2)CC1  9.8%
36. Cn1c(=O)c2c(ncn2CC(=O)N2CCN(S(=O)(=O)c3ccc(Cl)cc3)CC2)n(C)c1=O  9.74%
37. CC(NC(c1ccccc1)c1ccccc1)C(=O)N1CCCc2ccccc21 (stereo not drawn)  9.67%
38. COc1cc(OC)cc(-c2nc3ccccc3c(=O)n2OC(=O)c2ccccc2C)c1  9.57%
39. CC(CN(C)Cc1ccccc1)OC(=O)c1ccccc1F.Cl (stereo not drawn)  9.15%
40. Cc1c(C(=O)OCC(=O)Nc2c(C)n(C)n(-c3ccccc3)c2=O)cccc1[N+](=O)[O-]  9.1%
41. CCOc1nc(NC(=O)NS(=O)(=O)c2cccc(Cl)c2)nc(-c2ccccc2)n1  9.07%
42. O=C1CC(N2CCc3ccccc32)C(=O)N1c1ccccc1 (stereo not drawn)  8.63%
43. O=C(N/N=C/c1ccc2c(c1)OCO2)/C(=C/c1ccc2c(c1)OCO2)NC(=O)c1ccccc1  8.61%
44. S=C(NCCSCc1ccc(Cl)cc1Cl)Nc1ccccc1  8.19%
45. CSc1ccc(CN(C)C(=O)C(Cc2ccccc2)NC(=O)c2ccccc2)cc1 (stereo not drawn)  8.17%
46. Cc1cn(C2CCC(CO)O2)c(=O)[nH]c1=O (stereo not drawn)  7.91%
47. CCc1ccccc1NC(=O)C(Cc1cccc(OC)c1OC)c1nn[nH]n1 (stereo not drawn)  7.66%
48. O.O=C(/C=C/c1ccc(O)c(O)c1)O[C@@H]1C[C@](O)(C(=O)O)C[C@@H](O)[C@H]1O  7.59%
49. COc1ccc(N(CC(=O)NC2CCCC2)C(=O)CS(=O)CC(=O)Nc2ccc3c(c2)OCO3)cc1 (stereo not drawn)  7.58%
50. Br.COc1ccc(N=C/C=C2\C=C(c3ccccc3)OC(C)(C)O2)cc1  7.56%
51. O=C(CCCc1ccccc1)NCc1ccccc1Cl  7.24%
52. COc1cc2c(cc1OC)C(C)N(C(=O)Nc1cc(C)cc(C)c1)CC2 (stereo not drawn)  7.03%
53. Nc1ccc(Oc2ccc(Br)cc2)cc1  7%
54. Cc1cc(C)cc(Nc2ncnc3nc[nH]c23)c1  6.8%
55. CCc1nn(CCCC(=O)NCc2ccc(C)cc2)c(=O)c2cc3occc3n12  6.61%
56. O=c1c([N+](=O)[O-])cccn1Cc1ccc(F)cc1Cl  6.45%
57. O=C(C1CCCN(S(=O)(=O)c2cccc3nsnc23)C1)N1CCc2ccccc2C1 (stereo not drawn)  5.53%
58. COCCCNC(=O)Cn1cnc2sc(C)c(S(=O)(=O)N3CCN(c4ccccc4OC)CC3)c2c1=O  5.16%
59. Cc1cc(NS(=O)(=O)c2ccc(NC(=O)C(C)Oc3ccc4c(C)cc(=O)oc4c3)cc2)no1 (stereo not drawn)  5.14%
60. C[C@H]1CCC[C@@]2(O[C@@H](CCO)C[C@@H](O)[C@@H]2O)O1  4.72%
61. O=c1[nH]n(-c2cccc(Cl)c2)c2ncccc12  4.63%
62. O=C(COC(=O)CCc1nc2ccccc2s1)Nc1nc(-c2ccccc2)cs1  4.5%
63. Cc1cc(C)c(S(=O)(=O)Nc2ccc3c4c(cccc24)CC3)c(C)c1  4.46%
64. O=C(NC1(C(F)(F)F)NC(=O)N(C2CCCCC2)C1=O)c1cccs1 (stereo not drawn)  3.99%
65. COc1cccc(NC(=O)C2CC2(c2cccc(OC)c2)c2cccc(OC)c2)c1 (stereo not drawn)  3.96%
66. O=C(CN1C(=O)NC2(CCCC2)C1=O)N1CCN(S(=O)(=O)c2ccc(Cl)c(C(F)(F)F)c2)CC1  3.74%
67. COCC1CCN(C(=O)c2ccc(OC3CCN(Cc4ccccn4)CC3)cc2)C1 (stereo not drawn)  3.06%
68. COc1ccccc1-n1cnnc1SCC(=O)Nc1ccccc1  2.42%
69. O=C(CCCl)Nc1nnc(SCC(=O)NC2CCCC2)s1  2.16%
70. CCCOc1ccc(N2C(=O)CC(N3CCN(c4ccccc4OC)CC3)C2=O)cc1 (stereo not drawn)  0.35%
71. CCC(C)(C)c1nnc(NC(=O)c2cccc([N+](=O)[O-])c2)s1  0.343%
72. CCN(CC)S(=O)(=O)c1ccc(C(=O)OCn2nnc3ccccc3c2=O)cc1  0.225%
73. NC(=S)Nc1ccc2cc[nH]c2c1  0.216%
74. COc1ccc(OC)c(C(C(=O)NCc2ccco2)N(C(=O)Cn2nnc3ccccc32)C(C)C)c1 (stereo not drawn)  -1.74%
75. Cn1c(=O)c2cc(S(=O)(=O)NCCC(=O)NCCc3ccc(Cl)cc3)ccc2n(C)c1=O  -2%
76. CCOC(=O)c1cnc(SC)nc1N  -2.51%
77. CCC(CC)N1CCN(Cc2nc3ccccc3c(=O)n2-c2ccc(F)cc2)CC1  -3.22%
78. CC1CCCCC1NC(=O)c1ccc2c(c1)[nH]c(=O)n2C1CCCC1 (stereo not drawn)  -5.2%
79. COC(=O)CSc1nc(C)c(C(C)=O)cc1C#N  -6.22%
80. Cc1nn(C)cc1CN1CCCC(C(=O)c2ccc(-c3ccccc3)cc2)C1 (stereo not drawn)  -6.4%
81. Cn1c(CNC(=O)c2ccco2)nnc1SCC(=O)c1ccc(Br)cc1  -7.3%
82. O=C1c2oc3ccccc3c(=O)c2C(c2cccc(Br)c2)N1Cc1ccco1 (stereo not drawn)  -7.63%
83. Cc1ccc(NC(=O)c2cccc(S(=O)(=O)N3CCc4ccccc4C3)c2)nc1  -8.48%
84. CN1CCN(c2ccccc2NC(=O)c2ccc(-c3ccccc3[N+](=O)[O-])o2)CC1  -13.8%
85. O=C1COc2ccc(C(=O)CSc3nnc(Cc4cccs4)n3-c3ccccc3)cc2N1  -32.7%
86. c1nc(NCC2(N3CCOCC3)CCCCC2)c2ccsc2n1  -54.5%
87. COc1cc(CCC(=O)N2CCN(c3ccc([N+](=O)[O-])cc3)CC2)cc(OC)c1OC  -83.6%
